Test results as given in the supplement of paper PMC11417369.
± gives the standard deviation of the averaged measurements. Some of the results follow.

System: PfAP2-EXP AP2 domain (GST-tagged)
Assay: gcPBM binding intensity (ln(normalized median fluorescence intensity)); higher = stronger DNA binding
Outline: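 The binding buffer was 1× PBS containing 1% milk, 0.2 mg/ml BSA, 0.5% salmon testes DNA and 0.03% Triton X-100. In it, GST-tagged P. falciparum DNA-binding domains expressed in E. coli were applied for 1 h to an Agilent 4 × 180k array of primer-extended double-stranded 36-bp intergenic genomic probes plus negative controls. Binding intensity, read with Alexa488 anti-GST antibody and a 488 nm scan, is the highest Masliner-normalised natural-log median intensity across replicate spots of either probe orientation.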

Sequence	gcPBM binding intensity (ln)
GTAATTTTGAGATGATGTACATATTTTTTCCTTGTC [XGTACX_site4103]	8.78 ± 0.47
AAAAGAAACTTATTTACGCACACTTTATTGCATGTT [CACACA_site3887]	8.77 ± 0.32
GATAAATCATATATAACACACATATGAATATTACAA [CACACA_site1321]	8.29 ± 0.45
TAAGATATATTTTTTTGTACACATAATAAAATAATA [XGTACX_site8938]	8.22 ± 0.31
AGTGTTTTTTATAAAGTGCAATATAAAAACAAAATG	9.05 ± 0.43
ATGTTATATATGTATTGTACGTATTTTGTATATTAT [XGTACX_site6607]	8.99 ± 0.34
AATTTTTTTTTATTGTGTACTTATTTTTTTATATTT [XGTACX_site917]	8.68 ± 0.38
AAGAATAAAGAATGGTGTACATGCATATAAAATATT [XGTACX_site5707]	9.16 ± 0.28
TTTTATTTCATTTGTTGTACTTTCAAAATATTATTA [XGTACX_site2192]	8.89 ± 0.47
CAACATATGCATATGTGTACATATTTTATTTTCAAC [XGTACX_site2237]	8.43 ± 0.4
ATATACTCATTAATAACACACAATATGATAACAAAT [CACACA_site5913]	8.84 ± 0.37
ACATACATATGTAAATGTACAAAATATCCATAGATT [XGTACX_site2782]	8.62 ± 0.52
AATATATTTCATTTTTGTACACACAACGTTGGAGGG [XGTACX_site6461]	9.45 ± 0.57
CGAACAAACAAATAAACACACAAAAAAAAATATATA [CACACA_site1825]	8.65 ± 0.79
ATACTTATGATAAATACACACTTGAAATTAAGGATT [CACACA_site4772]	8.45 ± 0.47
ATAGAAGGCAACTTGGTGCACAAAAAAAAAAATAAT	9.43 ± 0.11
AATATAAAAAAAGAGGAGGGATGGTATACTTGTGGT [CACACA_negctrl_site986]	8.9 ± 0.51
AAAAAAAATACATACACACACACACCCACATATATA [CACACA_site3561]	8.75 ± 0.65
AATGTGAAAAAAAAAAGTACAGACCTAATCAAAAAA [XGTACX_site2486]	8.67 ± 0.28
TTTTTTAAAAGATATATAATATGTATGAATATTCAA [XGTACX_negctrl_site380]	8.17 ± 0.47
TTAAAGCTGACATATACACACATACATAAATTCATA [CACACA_site5377]	8.6 ± 0.39
TATACATATATTATATGTACATATATATATAATATA [XGTACX_site2942]	8.29 ± 0.28

Sequence	gcPBM binding intensity (ln)
ATATATATATAATAAACACACAAATAGATATAACAT [CACACA_site3715]	9.5 ± 0.18
GGACAAGTTTTTTACATAAATAAAAAAAATAAAAAA [XGTACX_negctrl_site125]	8.44 ± 0.42
CCCCCCCACAGACACACACACATACATACCACATAT [CACACA_site2306]	10.3 ± 0.014
ATATTATAATTGAAGGTGCAAAATGTAATATAGATA [GTGCAC_site9661]	9.41 ± 0.028
ATTCATTTTTTGGGGGGTACACCCTTTTAAACATTT [XGTACX_site4797]	10.3 ± 0.48
ATTATTATTTAAAAAAGTACATTGAAGTTCATAATA [XGTACX_site3575]	8.44 ± 0.3
TGAAATGATATATAAACACACATATATATATATATA [CACACA_site3511]	10 ± 0.36
ATTTTTAATGTGATCACACATAAATATTATATATAT [CACACA_site5641]	8.48 ± 0.29
GTATAAAAAAATATATGTACTTATTTACATATATAT [XGTACX_site4744]	8.24 ± 0.32
CTGGAGTTAAAAATGTGTACCTAAAAAATTTTGTTC [XGTACX_site5554]	8.52 ± 0.35
ATTATTATATATAAAACACACAATTTTGTTTTCACA [CACACA_site3965]	8.29 ± 0.24
ACTATTTAAATGCAAAGTACTTTGATAATAAACAAT [XGTACX_site2608]	8.85 ± 0.44
TAATATAACAAAAAAATAAAATAAAATAAAAAATAA [CACACA_negctrl_site109]	8.4 ± 0.41
ATATAATAATATTAAAGTACATGCATATATATTTAT [XGTACX_site7422]	8.71 ± 0.31
ATTTTTTAAAAAAACATACACACAAAAAAAAAAAAA [CACACA_site3936]	8.38 ± 0.56
CATAATATCTCTTTGTGTACATATAGTTATTATTAT [XGTACX_site7688]	8.69 ± 0.37
TATAAACATAAATATACACACAAACATATAGGTATT [CACACA_site6690]	8.57 ± 0.39
CCCCTTAATTTATTTTGTACATATAATTTTTTTTTT [XGTACX_site3270]	8.6 ± 0.42
ATTAATCAATATAGGCGTACAAAAAAAATAAATTAT [XGTACX_site1513]	8.94 ± 0.54
AAAAAAAAAAAAAAAAAAAAAAATATATATATATTT [GTGCAC_negctrl_site502]	8.99 ± 0.11
CTTGTATATAAACACACACACACTTTCTTTTTTTAA [CACACA_site8602]	8.6 ± 0.41
ACAAAAATAAGCAAATGTACATATGTATAATATATT [XGTACX_site2492]	8.71 ± 0.5

Sequence	gcPBM binding intensity (ln)
GTATTTTTAAATGACACACACATATATAAATATGTA [CACACA_site6880]	8.38 ± 0.31
TCTTATTTTATAAATATAAATATATATATATATATA [GTGCAC_negctrl_site479]	10.1 ± 0.4
ATATATTTTAAAGAAAGTACCCACCGTTTGAAGTCA [XGTACX_site2273]	8.73 ± 0.41
ATTAATATATAACGTGCACACACACCGTTACGTATG [CACACA_site8543]	9.12 ± 0.042
TGTTATATATATTGACTTAATAAATAAATAAATATA [GTGCAC_negctrl_site590]	7.95 ± 0.43
ATATATTTTATATGTGTGCACTATATATATATATAT	10.3 ± 0.18
TATTTTATAATTTACCGTACATTAATTGTATTATTA [XGTACX_site5722]	8.55 ± 0.35
TTACAAAACACTTATACACACATATAAATATAAATA [CACACA_site7307]	8.48 ± 0.42
CTCCTCATATAATTTTGTACATAAAAAATTACCATT [XGTACX_site3879]	8.72 ± 0.42
ATATTATGTGAAGAACGTACAAATTTTTACACTATA [XGTACX_site1485]	8.69 ± 0.43
TTCTTTTCAGAAGGAAAGAATTATAACATATCATAA [XGTACX_negctrl_site548]	8.23 ± 0.45
TATTTTGCTCATCCATGTACACATAGATATATTTTA [XGTACX_site8244]	8.85 ± 0.44
TTTCTAAATGTTTATATATATATATATATATAAATA [GTGCAC_negctrl_site397]	8.47 ± 0.11
TAAAAGAAATAAGGTGCACACATATACATATATATA [CACACA_site8037]	9.16 ± 0.085
CTATAAATAACAGAAAGTACATATACATGGATATAT [XGTACX_site3317]	8.65 ± 0.38
AATATATCAAAAATTGGATAGTTTCTTATAAAAAAT [CACACA_negctrl_site39]	8.09 ± 0.44
ATACATATATATATTCTACACACTTATAATATAATA [CACACA_site8782]	8.71 ± 0.44
GTAAAAGTTAAAAAAACATGCAAAATTTAAAAAAAA [TGCATGCA_site637]	8.83 ± 0.37
ACTATATTTGCCCTTTTAATCAGAACAAAAAAAAAA [CACACA_negctrl_site1051]	8.62 ± 0.12
ATTATATTCCAAGTTTGTACATATATATAAAAGTAT [XGTACX_site1631]	8.54 ± 0.33
AGTATAAAAATAAGCACACACACAAATATATATTTA [CACACA_site923]	8.86 ± 0.45
TTTTCTTTTACAAAGGGTACATAATTTAAATTCATA [XGTACX_site3876]	8.35 ± 0.4

Sequence	gcPBM binding intensity (ln)
TTTCTTCTGCATTATGCACACTATAATTCGTTAAAA [CACACA_site5568]	9.04 ± 0.26
ATAATATAAATATTAACACACATCCTTTTATGTATA [CACACA_site6685]	8.46 ± 0.29
TTTATATATTATACATGTACATATTTATTTATATAA [XGTACX_site3474]	8.57 ± 0.28
CTTATATTAAAAACTTGTACACATGTTAAGAATTTT [XGTACX_site5857]	8.43 ± 0.28
TATATGCACTTAATATGTACACAAAAAAAAAAAAAA [XGTACX_site6199]	8.43 ± 0.53
AAATAAGCATATACAAACATGCATACATATAAATAA [CACACA_negctrl_site246]	8.85 ± 0.32
AAAAAAAAAAAATCATGTACTTATTTTTCATTGTTG [XGTACX_site1542]	8.22 ± 0.26
TATTTAAAAGTATATACACACAACTGGAATGAAAAG [CACACA_site4126]	9.04 ± 0.52
CATTATGTCATAAATGCACACATATATATATACATA [CACACA_site8454]	8.59 ± 0.38
AAAATTAAAAAAATAAATACATTATATAATTAAAAA [CACACA_negctrl_site1426]	8.3 ± 0.33
TATTTTAATCGTAAGTGTACTCTTTTAAGTATATGT [XGTACX_site8591]	8.52 ± 0.31
ATTATAACACCTCCCCCCCTTTTTTTATGAAGACCA [CACACA_negctrl_site1043]	10.6 ± 0.18
TATGTATGCCCTAATGCATGTGAACAAAATAATATA [TGCATGCA_site407]	8.89 ± 0.33
AACAGACATAGACACACACACATATATTTATTTATA [CACACA_site7571]	8.64 ± 0.4
TTTTTTAAATTTTGAATTATAACTACATTAAAGAAA [GTGCAC_negctrl_site279]	8.11 ± 0.45
ATGCAAATAATATAAAGTACACAACATCGCCCAAAG [XGTACX_site1825]	9.05 ± 0.38
TGTTGTAACAAAAGTACACACACATTTCTATAAATT [CACACA_site8894]	8.45 ± 0.23
ATTACATAACAATATACACACTATTGATTAAAGAGA [CACACA_site5602]	8.52 ± 0.4
TTTATTAGATAACGATAAACGAAAAAAAAAAAATAA [GTGCAC_negctrl_site81]	8.46 ± 0.53
ATAATATAAATAAAGCGTACTTAATTTTATATATAT [XGTACX_site4626]	8.29 ± 0.18
TTTTTTTTTTTTTTTACACACTATAGGGAAAAAAAA [CACACA_site1916]	8.23 ± 0.39
AAAAATATAATATATCTAAAATTTTTCATTAAATAT [XGTACX_negctrl_site274]	7.91 ± 0.38
